The campaign covered roughly 310,000 compounds. About 2,200 (0.71%) showed an effect of 50% or more. The effect is printed as a negative number. The list shows a part of the results.

Chain of human ether-à-go-go-related gene (hERG) potassium channel (Q12809 whole entry, looked up): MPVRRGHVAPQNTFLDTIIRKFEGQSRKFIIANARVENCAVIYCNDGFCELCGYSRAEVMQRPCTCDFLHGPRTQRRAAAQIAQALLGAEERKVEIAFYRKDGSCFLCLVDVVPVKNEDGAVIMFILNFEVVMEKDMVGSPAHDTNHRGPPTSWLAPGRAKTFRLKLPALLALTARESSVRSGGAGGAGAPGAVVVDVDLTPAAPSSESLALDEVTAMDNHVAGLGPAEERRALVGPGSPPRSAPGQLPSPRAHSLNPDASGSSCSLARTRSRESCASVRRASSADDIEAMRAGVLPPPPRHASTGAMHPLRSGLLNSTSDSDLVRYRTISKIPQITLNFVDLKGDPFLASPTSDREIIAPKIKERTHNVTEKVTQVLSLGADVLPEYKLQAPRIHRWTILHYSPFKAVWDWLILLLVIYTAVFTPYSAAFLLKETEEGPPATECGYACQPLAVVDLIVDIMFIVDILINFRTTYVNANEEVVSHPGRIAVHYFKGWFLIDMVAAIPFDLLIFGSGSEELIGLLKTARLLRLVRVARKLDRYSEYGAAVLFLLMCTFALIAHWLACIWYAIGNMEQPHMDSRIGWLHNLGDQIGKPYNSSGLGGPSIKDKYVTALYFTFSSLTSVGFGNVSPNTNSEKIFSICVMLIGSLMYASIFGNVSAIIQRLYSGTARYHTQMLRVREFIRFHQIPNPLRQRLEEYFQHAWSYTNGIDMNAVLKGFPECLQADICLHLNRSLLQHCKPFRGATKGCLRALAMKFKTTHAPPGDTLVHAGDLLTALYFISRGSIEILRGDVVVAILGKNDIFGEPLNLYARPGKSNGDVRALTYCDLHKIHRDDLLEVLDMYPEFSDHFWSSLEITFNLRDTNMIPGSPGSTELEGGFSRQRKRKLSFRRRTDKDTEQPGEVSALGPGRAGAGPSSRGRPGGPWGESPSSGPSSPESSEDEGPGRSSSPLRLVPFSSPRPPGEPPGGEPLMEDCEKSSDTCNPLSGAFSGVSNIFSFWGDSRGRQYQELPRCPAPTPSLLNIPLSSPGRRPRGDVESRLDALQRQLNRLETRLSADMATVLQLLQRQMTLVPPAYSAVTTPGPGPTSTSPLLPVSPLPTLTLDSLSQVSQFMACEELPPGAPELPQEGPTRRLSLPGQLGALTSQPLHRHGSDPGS

This assay addresses human ether-à-go-go-related gene (hERG) potassium channel (human, UniProt Q12809). In words: primary screen, population patch clamp on CHO cells stably expressing hERG.
On to `O=C(NCc1ccc(Cl)cc1)c1noc2c1CCCC2`, for which the “hERG current change (%, negative = inhibition) at 1uM” value is 2.68%. Take `CCCCN1C(=O)N(C)C2NC(=O)NC21` (stereo not drawn): the “hERG current change (%, negative = inhibition) at 1uM” value was 8.36%.

As to `CC(C)OCCCNC(=O)C(=O)NCCCOC(C)C`, the “hERG current change (%, negative = inhibition) at 1uM” value was determined as 3.34%.

Turning to `COc1ccc(CCNc2oc(COc3ccccc3)nc2C#N)cc1`, the “hERG current change (%, negative = inhibition) at 1uM” value was found to be 9.11%. With `O=C(NCC1CCCO1)C1CCCN1C(=O)Nc1ccc(Cl)cc1` (stereo not drawn) the figure was 21.8%; with `CC(=O)NC1(C(F)(F)F)N=C2SCCN2C1=O` (stereo not drawn), 5.43%. With `CC(Sc1nc2c(N)ncnc2n1CCOc1ccccc1)C(=O)O` (stereo not drawn) the figure was 14.8%; with `CCC(NC(=O)c1ccccc1NC(=O)c1ccccc1)C(=O)OC` (stereo not drawn), 13.3%. With `COCCNC(=O)c1nn2c(C(F)(F)F)cc(-c3ccccc3)nc2c1Cl`, the “hERG current change (%, negative = inhibition) at 1uM” value was 14%.

As to `Brc1cccc2sc(N3CCCC3)nc12`, the “hERG current change (%, negative = inhibition) at 1uM” value was found to be 4.59%.

Regarding `CN(C)C(=O)c1cc(C(=O)c2ccc(F)cc2C(F)(F)F)c[nH]1`, the “hERG current change (%, negative = inhibition) at 1uM” value was 14.3%. With `Cc1cc2cc(CNC(=S)NCc3ccccc3)ccc2n1C` the figure was 21.9%. As for `Cc1ccc(NC(=S)N2CCC(N(C)CC3CCCO3)CC2)cc1C` (stereo not drawn), the “hERG current change (%, negative = inhibition) at 1uM” value was found to be 7.04%. Consider `CC(NC(=O)Nc1ccccc1)C(c1ccccc1)N1CCOCC1` (stereo not drawn), for which the “hERG current change (%, negative = inhibition) at 1uM” value came to 20.6%.

On to `CCOC(=O)N1CCC(NC(=O)c2cc(C(=O)NCc3ccc(F)cc3)ccc2CO)CC1`, for which the “hERG current change (%, negative = inhibition) at 1uM” value is recorded as 3.58%.

In the case of `O=C(Nc1ccccc1)c1ccccc1OCc1ccc(S(=O)(=O)N2CCOCC2)cc1`, the “hERG current change (%, negative = inhibition) at 1uM” value turned out to be 13.9%. With `CCN(CC)S(=O)(=O)c1ccc(OC)c(NC(=O)CSc2cc(Cl)ccc2Cl)c1` the figure was 7.06%; with `Cc1ccc(-c2ccc(CCC(=O)O)n2NC(N)=S)cc1`, 0.61%. Take `O=C(O)Cc1ccc2ocnc2c1`: the “hERG current change (%, negative = inhibition) at 1uM” value is recorded as 8.07%. On to `O=C(CCn1cnc2ccccc2c1=O)Nc1ccc2c(c1)OCCO2`, for which the “hERG current change (%, negative = inhibition) at 1uM” value is on record as 18%.

In the case of `O=C(c1ccco1)C12CN3CN(CN(C3)C1)C2`, the “hERG current change (%, negative = inhibition) at 1uM” value was found to be 14.7%. Consider `Nc1nonc1-n1nnc(C(=O)N/N=C/c2cc(Br)cs2)c1-c1ccccc1`, for which the “hERG current change (%, negative = inhibition) at 1uM” value worked out at 14.8%. With `COc1ccc(CC(=O)Nc2ccc(-c3cn4ccccc4n3)cc2)cc1` the figure was 10%. On to `COc1ccc(Cl)cc1C(=O)NCC#N`, for which the “hERG current change (%, negative = inhibition) at 1uM” value is on record as 0.998%.

Take `COc1ccc(NC(=O)COc2cccc(C(F)(F)F)c2)cn1`: the “hERG current change (%, negative = inhibition) at 1uM” value is reported as 16.8%.

Consider `COCCCn1c(=O)c2sccc2n2c(CCCC(=O)NCc3ccccc3OC)nnc12`, for which the “hERG current change (%, negative = inhibition) at 1uM” value came to 11.8%. The same measure for `O=C(Nc1ccccc1)C(=O)Nc1ccccn1`: 12%.
